Laboratory results published in PMC11002309, “Cancer-associated polybromo-1 bromodomain 4 missense variants variably impact bromodomain ligand binding and cell growth suppression” (The Journal of Biological Chemistry, 2024).

Key:
Experiment in all cases: AlphaScreen or HTRF; initial screen: His6-PBRM1-BD4 protein at 0.1, 1 and 10 μM with 50 nM biotinylated H3K14ac(1–20) peptide; streptavidin donor and nickel-chelate acceptor beads; 1× AlphaLISA Epigenetics buffer, 0.05% Tween 20, 2 μM TCEP; room temperature; n = 3
Settings in all cases: both partners purified
[1] = target: T1, PBRM1-BD4 WT (fourth bromodomain of polybromo-1, aa 496–637) (human, UniProt Q86U86-5 496-637)
T1 construct: polybromo-1 (PBRM1), fourth bromodomain (BD4) construct, aa 496-637; Construct in the pNIC-CTHF vector; source: E. coli BL21(DE3), purified (Ni-NTA, gel filtration)

PBRM1-BD4 R576L = target: T2, PBRM1-BD4 R576L (human, UniProt Q86U86-5 496-637, R576L)
T2 construct: polybromo-1 (PBRM1), fourth bromodomain (BD4) construct, aa 496-637, cancer-associated missense variant; source: E. coli BL21(DE3), purified (Ni-NTA, gel filtration)

PBRM1-BD4 M586I = target: T3, PBRM1-BD4 M586I (human, UniProt Q86U86-5 496-637, M586I)
T3 construct: polybromo-1 (PBRM1), fourth bromodomain (BD4) construct, aa 496-637, cancer-associated missense variant; source: E. coli BL21(DE3), purified (Ni-NTA, gel filtration)

PBRM1-BD4 N528I = target: T4, PBRM1-BD4 N528I (human, UniProt Q86U86-5 496-637, N528I)
T4 construct: polybromo-1 (PBRM1), fourth bromodomain (BD4) construct, aa 496-637, cancer-associated missense variant; source: E. coli BL21(DE3), purified (Ni-NTA, gel filtration)

PBRM1-BD4 P556S = target: T5, PBRM1-BD4 P556S (human, UniProt Q86U86-5 496-637, P556S)
T5 construct: polybromo-1 (PBRM1), fourth bromodomain (BD4) construct, aa 496-637, cancer-associated missense variant; source: E. coli BL21(DE3), purified (Ni-NTA, gel filtration)

Measured: binding result

PBRM1-BD4 R576L, sequence (Q86U86 496-637 R576L): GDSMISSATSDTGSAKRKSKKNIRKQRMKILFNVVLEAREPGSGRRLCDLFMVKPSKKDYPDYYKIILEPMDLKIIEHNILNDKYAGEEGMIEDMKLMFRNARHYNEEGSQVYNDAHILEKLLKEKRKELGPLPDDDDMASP
PBRM1-BD4 M586I, sequence (Q86U86 496-637 M586I): as the sequence (Q86U86 496-637 R576L) above, with L81R, M91I counted along it
PBRM1-BD4 N528I, sequence (Q86U86 496-637 N528I): as the sequence (Q86U86 496-637 R576L) above, with N33I, L81R counted along it
PBRM1-BD4 P556S, sequence (Q86U86 496-637 P556S): as the sequence (Q86U86 496-637 R576L) above, with P61S, L81R counted along it

B1: biotinylated histone H3K14ac(1–20) peptide (peptide)
peptide: not shown
modifications: acetyl-lysine at K14; biotin on the added C-terminal lysine; C-terminal amide (CONH2)
notes: histone H3, residues 1-20; added C-terminal lysine that carries the biotin; also called H3K14ac peptide; Kac peptide; source: synthetic peptide, bought: Peptide 2.0
binds: all assays above
